Assay results published in PubChem BioAssay AID652104 (National Center for Advancing Translational Sciences (NCATS), 2013).
Among all 410,000 compounds or so, about 7,200 (1.8%) were called active. Inconclusive means that the source gave no clear call. Such entries were picked first, then a sample of the others. Calls come from the whole dose curve; as a rule, active = well fitted activation curve with a large enough effect; inconclusive = small, poorly fitted or top-dose-only effect, or another doubt; inactive = no such curve, though single readings can be large or run the other way. Potencies of inconclusive entries are left out as doubtful fits.
Potency is the fitted concentration of half-maximal effect; tags give direction and shape of the fitted curve.

Test: qHTS of TDP-43 Inhibitors; note: nearly all actives have a fitted effect of over 50% in size; for growth rescue (activation): % of control where 0% means no effect
Settings: TDP-43 expressing yeast growth rescue, BacTiter-Glo, 24 h; growth rescue (activation): at 46.1 µM (top of the series) unless noted
Method in brief: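 Yeast cells expressing TDP-43 under galactose induction are exposed to compounds for 24 hr at 30 deg C. BacTiter-Glo luminescence measures growth, so protective compounds score as activators.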
In the case of `COc1ccccc1NC(=O)C1CCN(c2ncnc3c2nc2n3CCCCC2)CC1`, the Potency was inconclusive [activator, partial curve].
In the case of `N/C(=N\OC(=O)CSc1ccccc1)c1ccncc1`, the Potency was inconclusive [activator, partial curve].
For `COc1ccc(N2CC(NC(=O)c3ccc(S(=O)(=O)N4CCOCC4)cc3)CC2=O)cc1` (stereo unspecified), the Potency was “inactive”.
For `CCN(CC)C(=O)C1CCCc2c1[nH]c1ccc(Cl)cc21` (stereo unspecified), the Potency was active: 14.1 µM.
For `COc1ccc(OCC(=O)N2c3ccccc3CC2C)c([N+](=O)[O-])c1` (stereo unspecified), the Potency was inconclusive [activator, single point].
In the case of `CC(C)Nc1nc(Nc2ccc(Cl)cc2F)c2sccc2n1`, the Potency was inconclusive [activator, partial curve, poor fit].
For `CC1(C(=O)NCC2CC2)CCN1C(=O)C1(c2ccc(Cl)cc2)CC1` (stereo unspecified), the Potency was inconclusive [activator, partial curve, poor fit].
With `CC(=O)NC(c1cccc(F)c1)c1nc(-c2cc3ccccc3o2)cs1` (stereo unspecified) the Potency was inconclusive [activator, partial curve].
For `O=C(NC(=S)Nc1ccccc1Br)C1CCCCC1`, the Potency was active: 15.8 µM.
In the case of `CS(=O)(=O)Nc1ccc(C(=O)Nc2ccccc2Sc2ccccc2)cc1`, the Potency was inconclusive [activator, single point].
In the case of `CCOC(=O)N1CCC(NCCNC(=O)c2cccc(F)c2)CC1`, the Potency was “inactive”.
With `O=C(COc1ccc(Cl)cc1Cl)c1ccc[nH]1` the Potency was inconclusive [activator, full curve].
With `COc1ccc(CCNc2cc(-c3ccccc3)nc3ncnn23)cc1` the Potency was inconclusive [activator, partial curve].
With `CCc1cccc(NC(=O)c2coc(=O)c3ccccc23)c1` the Potency was inconclusive [activator, partial curve].
In the case of `COc1cccc(CNC(=O)c2cc3ccccn3n2)c1`, the Potency was inconclusive [activator, single point].
In the case of `Cc1ccc(C)c(CN2C(=O)C(O)(c3c[nH]c4ccccc34)c3ccccc32)c1` (stereo unspecified), the Potency was inconclusive [activator, single point].
For `CC1(Cc2ccc3c(c2)OCO3)C(=O)Nc2c(Cl)ccc(Cl)c21` (stereo unspecified), the Potency was inconclusive [activator, single point].
With `COC(=O)c1cn(CCOc2ccccc2F)c2ccccc12` the Potency was active: 11.2 µM.
In the case of `CCOc1ccc(-c2nonc2NC(=O)c2oc3cc(Br)ccc3c2C)cc1`, the growth rescue (activation) was inactive: -5.15% [at 9.22 µM].
With `CC(C)(C)OC(=O)N1CCC(CC2CC(c3ccccc3)=NO2)(C(=O)O)CC1` (stereo unspecified) the Potency was active: 22.4 µM.
With `CCc1cccc(C)c1NS(=O)(=O)c1ccc(-n2cccn2)cc1` the Potency was inconclusive [activator, single point].
In the case of `Cc1ccc(C(=O)N/N=C2\SCC(=O)N2c2cc(C)ccc2C)cc1`, the Potency was inconclusive [activator, partial curve].
With `Cc1noc(C)c1C(=O)N1CCCC(C)(C(=O)NS(=O)(=O)C2CC2)C1` (stereo unspecified) the Potency was “inactive”.
For `CC1=C(C(=O)OCC2CCCO2)C(c2ccc(Cl)c(Cl)c2)NC(=O)N1` (stereo unspecified), the Potency was “inactive”.
In the case of `O=S1(=O)CCOC[C@H](CC2CCCCC2)N1Cc1cccc(C(F)(F)F)c1`, the Potency was inconclusive [activator, partial curve].
For `Cc1cc(NC(=O)CN(c2cccc(C)c2C)S(=O)(=O)c2ccccc2)ccc1Br`, the Potency was inconclusive [activator, partial curve].
For `O=C(Nc1c(O)c2ccccc2[nH]c1=O)c1ccco1`, the Potency was inconclusive [activator, full curve].
With `CCOc1ccccc1Nc1ccc2cc(S(=O)(=O)N3CCCCC3)ccc2n1` the Potency was inconclusive [activator, partial curve].
With `CCOC(=O)N1CCN(c2cc(=O)n(-c3ccccc3Cl)c(=O)[nH]2)CC1` the Potency was inconclusive [activator, single point].
For `COc1ccc(Cn2cc(CN3CCS(=O)(=O)N(Cc4ccc(-c5cccc(Cl)c5)cc4)C(C)C3=O)nn2)cc1` (stereo unspecified), the Potency was “inactive”.
With `CN1C(=O)/C(=N/OC(=O)c2ccccc2Br)c2ccccc21` the Potency was inconclusive [activator, single point].
With `CSc1nc(N2CCN(c3ccccc3Cl)CC2)c2ccccc2n1` the Potency was active: 12.6 µM.
In the case of `O=Nc1c(O)n(Cc2ccccc2)c2ccccc12`, the Potency was “inactive”.
In the case of `Clc1cccc(NCc2nnc(SCc3ccc(Cl)cc3Cl)o2)c1`, the Potency was inconclusive [activator, single point].
With `CCOc1ccc(N2C(=O)CC(N3CCN(c4ccc([N+](=O)[O-])cc4)CC3)C2=O)cc1` (stereo unspecified) the Potency was inconclusive [activator, partial curve, poor fit].
With `O=[N+]([O-])c1ccc(C(c2sc3nc(-c4ccco4)nn3c2O)N2CCC3(CC2)OCCO3)cc1` (stereo unspecified) the Potency was inconclusive [activator, single point].
In the case of `Cn1ncc2c(NNC(=O)c3ccc(Cl)c(Cl)c3)ncnc21`, the Potency was inconclusive [activator, partial curve].
In the case of `CCN(CC)C(=O)Oc1ccnc2cc(Cl)ccc12`, the Potency was inconclusive [activator, partial curve].
With `Cc1ccc2nc(N3CCC(C(=O)O)CC3)nc(-c3ccccc3)c2c1` the Potency was active: 22.4 µM.
For `CCOC(=O)/C(=N\Nc1ccccc1Cl)N(C)C1CCCCC1`, the Potency was inconclusive [activator, partial curve].
In the case of `COc1ccc(OC)c(C(C(=O)NC2CCCCC2)N(Cc2ccco2)C(=O)c2ccccn2)c1` (stereo unspecified), the Potency was “inactive”.
With `O=S(=O)(/C=C/c1ccccc1)NCc1ccccc1Cl` the Potency was active: 11.2 µM.
With `C/C(=N/Nc1nc(C)c(C)s1)c1cccc([N+](=O)[O-])c1` the Potency was inconclusive [activator, single point].
For `Nc1cc([N+](=O)[O-])ccc1OCc1ccccc1`, the Potency was inconclusive [activator, full curve, poor fit].
In the case of `Cc1ccc(Cl)cc1NC(=O)COC(=O)CCN1C(=O)C2CC=CCC2C1=O` (stereo unspecified), the Potency was “inactive”.
With `COc1ccc(C(=O)CCN2CCC(C)CC2)cc1` the Potency was inconclusive [activator, partial curve].
For `CCN(C(=O)/C=C/c1ccc(OC)cc1)C1CCCCC1`, the Potency was active: 17.8 µM.
For `COc1ccc(NC(=O)C(=S)NC2CCCCC2)cc1`, the Potency was inconclusive [activator, single point].
For `O=C(COc1ccccc1Br)N1CCN(C(=O)c2cccs2)CC1`, the Potency was inconclusive [activator, partial curve].
In the case of `N#C/C(=C\c1cccnc1)C(=O)Nc1ccc(SC(F)F)cc1`, the Potency was inconclusive [activator, single point].
For `COc1ccc(Br)c(C(=O)OCC(=O)NC2CCCCCCC2)c1`, the Potency was inconclusive [activator, single point].
For `O=C(Nc1nc(-c2ccc(Cl)s2)cs1)c1ccco1`, the Potency was inconclusive [activator, partial curve].
For `CCCOC(=O)c1cccc(NC(=O)c2cccnc2)c1`, the Potency was inconclusive [activator, partial curve, poor fit].
With `CCCCN(CCCC)c1nc(-c2ccccc2)nc2ccccc12` the Potency was inconclusive [activator, single point].
In the case of `Cc1ccc(-c2n[nH]c(=S)n2/N=C/c2c(C)nn(-c3ccccc3)c2C)cc1`, the Potency was inconclusive [activator, partial curve].
For `CN(C)C(=O)CSc1nnc2sc3ccccc3n12`, the Potency was “inactive”.
With `O=C(OCCOc1cccc(Cl)c1)c1ccc2ncsc2c1` the Potency was active: 14.1 µM.
In the case of `COC(=O)c1cc2sccc2n1CC(=O)N1CCCc2ccccc21`, the Potency was inconclusive [activator, single point].
With `CC1CCCC2(C1)NC(=S)N(c1ccccc1)N2` (stereo unspecified) the Potency was inconclusive [activator, single point].
With `O=C(CSc1nnnn1-c1cccc2c1CCCC2)N1CCCCC1` the Potency was inconclusive [activator, single point].
In the case of `COc1ccc(C(=O)N2CCN(c3ccccc3OC)CC2)cc1`, the Potency was inconclusive [activator, partial curve].
In the case of `COc1nc(NCc2cccnc2)nc(OC)n1`, the Potency was “inactive”.
With `FC(F)(F)c1cc(-c2ccccc2)nc(NCc2cccs2)n1` the Potency was inconclusive [activator, partial curve].
With `Cc1ccc(CSc2ncnc3onc(C)c23)cc1` the Potency was inconclusive [activator, partial curve].
For `Cc1cccc(C(=O)OCC(=O)NC2CCCCCCC2)c1`, the Potency was inconclusive [activator, single point].
For `COc1ccc(Cl)cc1S(=O)(=O)Nc1cccc(-c2ccc(N3CCOCC3)nn2)c1`, the Potency was “inactive”.
With `Cc1ccc2c(c1)nc(SCC(O)c1ccc(Br)cc1)n2C` (stereo unspecified) the Potency was “inactive”.
In the case of `COc1cccc(CN(C(=O)c2cc3ccccc3oc2=O)C2CC2)c1`, the Potency was inconclusive [activator, single point].
For `O=C(CNC(=O)c1ccco1)OCc1cccc(Cl)c1`, the Potency was inconclusive [activator, partial curve].
For `CCOC(=O)Cc1csc(SCc2nc3ccccc3c(=O)[nH]2)n1`, the Potency was inconclusive [activator, partial curve].
In the case of `CC1CCCCN1C(=S)NC(=O)c1cc(Br)ccc1Cl` (stereo unspecified), the Potency was active: 25.1 µM.
